# Among all 310,000 compounds or so, about 2,200 (0.71%) showed an effect of 50% or more. Effects have a minus sign here. The list shows a part of the results.
# Biological target: human ether-à-go-go-related gene (hERG) potassium channel (human, UniProt Q12809)
# Experiment: primary screen, population patch clamp on CHO cells stably expressing hERG
# Sequence of human ether-à-go-go-related gene (hERG) potassium channel (Q12809 whole entry, looked up): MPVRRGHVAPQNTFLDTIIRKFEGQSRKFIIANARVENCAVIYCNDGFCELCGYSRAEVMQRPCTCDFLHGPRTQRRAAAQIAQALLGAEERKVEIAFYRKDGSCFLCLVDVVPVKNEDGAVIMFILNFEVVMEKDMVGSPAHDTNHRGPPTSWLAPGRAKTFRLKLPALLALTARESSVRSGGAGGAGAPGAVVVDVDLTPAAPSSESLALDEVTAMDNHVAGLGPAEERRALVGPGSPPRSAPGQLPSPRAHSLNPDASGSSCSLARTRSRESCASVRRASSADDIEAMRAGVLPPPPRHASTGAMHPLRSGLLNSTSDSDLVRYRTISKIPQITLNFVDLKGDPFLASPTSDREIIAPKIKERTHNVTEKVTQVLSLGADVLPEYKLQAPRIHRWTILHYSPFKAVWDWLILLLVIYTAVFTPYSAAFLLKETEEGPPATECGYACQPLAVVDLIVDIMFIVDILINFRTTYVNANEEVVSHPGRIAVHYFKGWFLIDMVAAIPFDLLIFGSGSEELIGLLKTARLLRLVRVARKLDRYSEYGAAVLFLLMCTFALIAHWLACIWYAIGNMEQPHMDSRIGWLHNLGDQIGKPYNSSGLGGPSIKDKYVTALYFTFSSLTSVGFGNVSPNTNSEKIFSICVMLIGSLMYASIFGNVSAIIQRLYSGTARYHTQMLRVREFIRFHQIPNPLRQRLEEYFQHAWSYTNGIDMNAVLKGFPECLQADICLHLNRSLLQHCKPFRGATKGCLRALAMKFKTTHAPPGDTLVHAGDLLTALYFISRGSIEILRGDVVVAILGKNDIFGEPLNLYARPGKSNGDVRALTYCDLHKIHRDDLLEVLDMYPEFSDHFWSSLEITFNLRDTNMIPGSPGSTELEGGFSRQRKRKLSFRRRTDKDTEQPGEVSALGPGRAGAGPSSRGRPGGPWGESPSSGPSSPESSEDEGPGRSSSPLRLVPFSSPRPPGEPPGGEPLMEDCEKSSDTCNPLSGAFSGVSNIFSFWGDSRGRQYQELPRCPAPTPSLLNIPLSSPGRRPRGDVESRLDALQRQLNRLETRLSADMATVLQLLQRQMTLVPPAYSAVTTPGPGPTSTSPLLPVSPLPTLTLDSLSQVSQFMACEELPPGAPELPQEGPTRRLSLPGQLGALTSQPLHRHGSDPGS
row,Compound,"hERG current change (%, negative = inhibition) at 1uM [%]"
1,COc1cccc(C#Cc2c(CO)[nH]c3ccccc23)c1,5.95
2,CNC(=S)N/N=C(\C)c1ccc(Cl)c(Cl)c1,8.53
3,CCOC(=O)c1c(C)[nH]c(C)c1C(=O)CSc1nc2ccccc2c(=O)n1-c1ccc(CC)cc1,8.59
4,O=C(CCn1ccc2cc(S(=O)(=O)N3CCCC3)ccc21)NCc1ccccc1F,13.7
5,CCOC(=O)/C(=C/c1ccco1)NC(=O)c1ccc(Br)o1,13.4
6,Cc1cc2c(=O)n(CC(=O)N3CCN(c4ccccc4)CC3)cnc2s1,10.1
7,Cc1nc2ccccc2c(=O)n1/N=C/c1ccc(O)cc1,13.9
8,COc1cc(Cl)c(C)cc1NC(=S)NN,13.1
9,O=c1cc(O)c2sc3nc4c(c(C(F)(F)F)c3c2[nH]1)CCCCC4,-12.1
10,Cc1nc2c(-c3ccc(F)cc3)c(C)nn2c(C)c1CCC(=O)N1CCN(c2ccc(F)cc2)CC1,-49.3
11,CN(C)C(CNC(=O)NC1CCCCC1)c1cccnc1 (stereo not shown),10.4
12,CCC(=O)N1CC2(CC(c3cccc([N+](=O)[O-])c3)=NO2)C[C@H]1C(=O)NCC(N)=O (stereo partly shown),8.22
13,Cc1cccc(-c2nnc3n2N=C(c2ccccc2Br)CS3)c1,-8.2
14,Cc1ccc(-c2csc3nnc(SCc4csc(C)n4)n23)cc1,-6.06
15,COc1ccc(-c2cccc(C(=O)Nc3ccccc3C)c2)cc1,-1.41
16,Cc1ccccc1NC(=S)NC(=O)COc1ccccc1C,14.2
17,COc1ccccc1N=Nc1ccc(N)c(C)c1,12.4
18,CC(Oc1ccc(Br)cc1)C(=O)Nc1cc(Cl)ccc1N1CCN(C)CC1 (stereo not shown),12.2
19,COCCNC(=O)c1ccc(CS(=O)(=O)c2ccc(OC)cc2)o1,8.32
20,COc1cc(-c2nc(CN3CCN(c4ncccn4)CC3)c(C)o2)ccc1F,4.25
21,Cn1cc(Cl)c(/C=C(\C#N)S(=O)(=O)c2ccccc2)n1,9.02
22,COCCNC(=O)C(C)OC(=O)c1cc2occc2n1C (stereo not shown),5.61
23,COc1ccccc1C(=O)Nc1ccc2c(c1)C(=O)NC2=O,4.53
24,COc1ccc(/C=N/Nc2nnc(-c3ncc[nH]3)c3ccccc23)cc1,12.6
25,CCCCOC(=O)Nc1ccc(S(=O)(=O)Nc2ccc([N+](=O)[O-])cc2)cc1,9.32
26,Cc1ccc(-n2nc3c(=O)n(CC(=O)NCc4ccc(C)o4)nc(C)c3c2C)cc1,16.4
27,O=C(CN1C(=O)COc2ccccc21)Nc1ccccc1F,12.5
28,CC(C)c1onc(C(=O)Nc2sc3c(c2C#N)CCC3)c1[N+](=O)[O-],12.5

row,Compound,"hERG current change (%, negative = inhibition) at 1uM [%]"
1,O=C(Nc1ccccc1F)c1cc(-c2ccco2)nc2ccccc12,15.6
2,O=c1c2ccccc2nc(-c2ccc(F)cc2)n1NCc1ccccc1O,-9.05
3,Cc1ccc(OCC(=O)NNC(=O)c2cc3ccccc3o2)cc1C,11.2
4,CCOC(=O)[C@H]1[C@H]2COc3ccc(Br)cc3[C@@H]2N2C(=O)CN(Cc3ccc(C)cc3)C(=O)[C@@]12C,8.67
5,COc1ccc(S(=O)(=O)NC(C(C)C)C(C)C)cc1OC,2.63
6,CCN(CCS(=O)(=O)c1ccc(Cl)cc1)C(=O)Nc1ccc(Cl)cc1,-4.05
7,CCCCn1c(=O)[nH]c(=O)c2c1nc(-c1ccc(CC)c([N+](=O)[O-])c1)n2C,6.84
8,O=C(/C=C/c1cccc(Cl)c1)N1CCC(Cc2ccccc2)CC1,3.8
9,COC(CNS(=O)(=O)c1cc2c3c(c1)CCN3C(=O)CC2)OC,17.5
10,C[C@@]12CCC3[C@@](CCC4[C@@]3(C)CCC[C@@]4(C)C(=O)O)(CC1=O)C2 (stereo partly shown),6.51
11,CCN(CC(=O)Nc1ccccc1OC)C(=O)CSCC(=O)Nc1ccc(OC)cc1,10.4
12,Cc1ccc(N/C(N)=N/c2nc(CSc3nnc(C)s3)cc(=O)[nH]2)c(C)c1,9.08
13,COc1ccccc1CC(=O)Nc1ccc2c(c1)C(=O)NC2=O,7.55
14,CCOC(=O)C1CCN(C(=O)CN(c2ccc3c(c2)OCCO3)S(C)(=O)=O)CC1,1.17
15,Cc1cccc(CN2CCN(C(=O)CCc3nnc(C4CCCCC4)o3)CC2)c1,4.62
16,COC(=O)c1ccc(C2c3[nH]c4ccccc4c3C[C@H]3C(=O)N(C4CC4)CC(=O)N23)cc1 (stereo partly shown),-0.703
17,CCOC(=O)C(NC(=O)c1ccc(OC)cc1)(Nc1cc(C)on1)C(F)(F)F (stereo not shown),4.95
18,Cc1nn(-c2ccccc2)c(N)c1C1(O)C(=O)Nc2ccccc21 (stereo not shown),7.74
19,COC(=O)C1=C(C)NC(C)=C(C(=O)OCC2CCCO2)C1c1cccc(Cl)c1 (stereo not shown),12
20,Cn1cc(S(=O)(=O)N2CCN(c3ccccc3F)CC2)c(=O)n(C)c1=O,13.9
21,CCC(C(=O)NCc1ccccc1OC)n1nc(C)n2c(cc3occc32)c1=O (stereo not shown),6.05
22,O=C(Nc1ccncc1)c1ccc(N2CCCC2=O)cc1,2.38
23,O=S(=O)(/N=C(/Nc1ccc(Cl)cc1Cl)c1ccccc1)c1cccs1,11.2
24,CCOC(=O)C1=C(C)N(CCCCCC(=O)O)C(=O)NC1c1ccccc1OS(=O)(=O)c1ccc(C)cc1 (stereo not shown),-6.08
25,Cc1ccccc1Cn1nc(C)c(NC(=O)c2ccccc2)c1C,-3.28
26,O=C(NCCc1ccc(F)cc1)c1cc2ccccc2oc1=O,9.88
27,CN(C)c1ccc(C(=S)N2CCOCC2)cc1Br,5.44
